# Assay results as given in PubChem BioAssay AID463173 (ICCB-Longwood Screening Facility, Harvard Medical School, 2010).
# The whole screen tested about 52,000 compounds, of which about 4,300 (8.3%) were called active. Rule as the data show it: active = survival mostly below about 52% (no sharp cut-off); inactive = mostly above about 56%. This is one part of the list.
# Test system: DeltatarO mutant
# Experiment: growth inhibition of S. aureus wild type versus tarO mutant, primary screen, teichoic acid synthesis inhibitors, RN4220, OD600 (AID 463173)
# Details: OD600, 18 h, active compounds read low, screened at 18.75 µg/mL (by protocol)
row,SMILES,survival
1,CCOc1ccc(NC(=O)Cn2c(=O)n(-c3cccc(Cl)c3)c(=O)c3c2c2cc(C)ccc2n3C)cc1,inactive: 147%
2,CCOc1cccc(C2c3[nH]c4ccccc4c3CCN2C(=O)CSc2ccccc2)c1 (stereo unspecified),inactive: 71%
3,Cc1cc(C(F)(F)F)c2c(N)c(C#N)sc2n1,inactive: 84%
4,Cc1cccc(C(=O)N2CCc3cc(CNC(=O)COc4ccc(Cl)cc4)ccc32)c1,inactive: 54%
5,COc1cccc(Cn2c(=O)cc(C)c3c(C)nn(C)c32)c1,inactive: 89%
6,COc1ccc(C(=O)NCC(c2cccnc2)N2CCN(c3ccccc3)CC2)cc1 (stereo unspecified),inactive: 63%
7,CCCc1nn2c(=O)cc(COC(=O)c3cccc(NC(=O)c4cccs4)c3)nc2s1,inactive: 71%
8,CCc1cccc(C)c1NC(=O)CCS(=O)(=O)c1cc(Br)cc2c1N(C(=O)C1CC1)CC2,inactive: 83%
9,Cc1c(Cl)cccc1NC(=O)Cn1c(=O)n(Cc2ccco2)c(=O)c2sc3ccccc3c21,inactive: 135%
10,Cc1c(C(=O)NCc2ccc(Cl)cc2)sc2nc3n(c(=O)c12)CCCCC3,active: 51%
11,O=C(CCCCn1c(=O)c2ccccc2n(CC(=O)Nc2cccc(C(F)(F)F)c2)c1=O)NCc1ccc2c(c1)OCO2,inactive: 84%
12,O=C(Nc1ccc(C(=O)OCc2cc(=O)n3c4c(sc3n2)CCCC4)cc1)c1ccc(F)cc1,inactive: 101%
13,CCc1nn2c(-c3ccccc3OC)ccnc2c1-c1ccccc1,active: 0%
14,COc1cc(NS(=O)(=O)c2ccc(NC(=O)c3cccc(F)c3)cc2)nc(OC)n1,inactive: 97%
15,CCC1CN(S(=O)(=O)c2cc(-c3cc(C)no3)ccc2C)c2cc(Cl)ccc2O1 (stereo unspecified),inactive: 75%
16,COc1cc(NC(=O)CC2C(=O)OCCN2Cc2ccccc2)cc(OC)c1 (stereo unspecified),inactive: 168%
17,CCN1CCN(CCCNC(=O)CS(=O)(=O)Cc2nc(-c3cccc(OC)c3)oc2C)CC1,inactive: 80%
18,Cc1oc2ncnc(N3CCCCC3)c2c1C(=O)NCC1CCN(Cc2cccc(F)c2)CC1,active: -5%
19,Cc1ccccc1NC(=O)c1ccc(F)c(S(=O)(=O)N2CCN(c3ccccc3F)CC2)c1,inactive: 71%

row,SMILES,survival
1,COc1ccc(-c2nc(CSc3nncn4c3cc3oc(C)cc34)c(C)o2)cc1,inactive: 56%
2,O=C(NCCc1ccccc1)C(=O)NCC(c1ccco1)S(=O)(=O)c1cccs1 (stereo unspecified),inactive: 94%
3,Cc1ccc(-n2nnc(-c3nc(-c4cccs4)no3)c2N)cc1C,inactive: 74%
4,COc1ccc(OC)c(CCNC(=O)c2ccc3c(c2)c(C)c(C)n3Cc2ccccc2)c1,inactive: 79%
5,CCOC(=O)c1cnc2ccccc2c1NCCCN(C)C,inactive: 94%
6,COc1ccc(N=C2SC(C(N)=O)CC(=O)N2Cc2ccccc2)cc1 (stereo unspecified),inactive: 78%
7,COc1ccc(NC(=O)CC2Nc3ccccc3NC2=O)cc1 (stereo unspecified),active: 61%
8,COc1ccc(Nc2nn(-c3ccc(OC(F)(F)F)cc3)nc2C(C)=O)cc1,inactive: 86%
9,Cc1cc(C(=O)NCc2ccccc2)c2c(C)nn(-c3cccc(F)c3)c2n1,inactive: 55%
10,COc1cc(Nc2nc(SCC(=O)c3ccc(Cl)c(Cl)c3)nc3ccccc23)cc(OC)c1,inactive: 83%
11,O=C(CCC1N=C2c3ccccc3N=C(SCC(=O)Nc3ccc(F)cc3)N2C1=O)NCc1ccco1 (stereo unspecified),inactive: 112%
12,O=C(Nc1ccc2nc3n(c(=O)c2c1)CCCCC3)c1cccc(C(F)(F)F)c1,inactive: 114%
13,Cc1ccc(N(Cc2cccs2)C(=O)c2ccco2)cc1,inactive: 75%
14,Nc1nn(-c2ccccc2)nc1C(=O)OCc1c(F)cccc1Cl,active: 28%
15,CC(C)N(C(=O)Cn1cc(S(=O)(=O)Cc2ccc(Cl)cc2)c2ccccc21)C(C)C,inactive: 69%
16,COc1ccc(-n2c(SCC(=O)NCc3ccccc3)nc3c([nH]c4ccccc43)c2=O)cc1,inactive: 93%
17,CCN(CC)c1ccc(C2Nc3ccccc3-c3cc(C)nn32)cc1 (stereo unspecified),active: 7%
18,CCCCN(CCCNC(=O)c1cc(Nc2ccccc2OC)nc2ccccc12)c1ccccc1,inactive: 78%
19,O=S(=O)(c1ccccc1)c1ccc(N2CCCCC2)cc1,inactive: 95%

row,SMILES,survival
1,COc1ccc(C2(CNC(=O)C(=O)Nc3ccccc3C)CCCC2)cc1OC,inactive: 73%
2,COc1cc(OC)c(NC(=O)N2CCC(CN3CCCC3)CC2)cc1Cl,inactive: 84%
3,CCOC(=O)c1ccc(Nc2nn3c(=O)c4ccccc4nc3s2)cc1,inactive: 99%
4,CCCCN(C)C(=O)Cn1cnc2sc(C)c(S(=O)(=O)N3CCC(C)CC3)c2c1=O,inactive: 68%
5,COc1ccccc1Nc1ncnc2scc(-c3ccc(F)cc3)c12,inactive: 115%
6,Cc1nn(-c2ccccc2)c2c1N(CC(=O)N1CCN(c3ccccc3F)CC1)C(=O)CS2,inactive: 115%
7,Cc1ccc(CNC(=O)c2ccc(CS(=O)(=O)Cc3ccc(C)cc3)o2)cc1,inactive: 49%
8,Cc1ccc(CNc2ccc3cc(S(=O)(=O)N4CCCCC4)ccc3n2)cc1,inactive: 67%
9,CCCCN(C)C(=O)c1ccc2c(c1)N(Cc1cccc(F)c1)C(=O)c1ccccc1S2,inactive: 92%
10,CCOc1cc(C#N)c(-n2nnc3c(sc4nc(C)cc(C)c43)c2=O)cc1OCC,inactive: 72%
11,CCOC(=O)c1scc(-c2ccc(C)cc2)c1S(=O)(=O)Nc1cc(OC)ccc1OC,inactive: 92%
12,Cc1cc(C)c(/C=C/c2onc(C)c2S(=O)(=O)N2CCC(C(=O)NCCc3ccccc3)CC2)c(C)c1,inactive: 94%
13,Cc1ccc(OCCCn2c(-c3ccc(Cl)cc3)nc3ccccc3c2=O)c(C)c1,inactive: 72%
14,Cc1ccc(NC(=O)C2CCCN(S(=O)(=O)c3c(C)noc3C)C2)cc1 (stereo unspecified),inactive: 120%
15,Clc1ccc(-n2c(Cc3ccccc3)nnc2SCc2nc(-c3cccs3)no2)cc1,inactive: 66%
16,COc1ccc(NC(=O)c2oc3ccccc3c2NC(=O)C2CCCCC2)c(OC)c1,inactive: 74%
17,Nc1c(C(=O)Nc2ccccc2)sc2nc3c(cc12)CN(Cc1ccccc1)CC3,inactive: 63%
18,Cc1ccc(C(=O)c2cn(Cc3ccccc3)c3nc(C)ccc3c2=O)cc1,inactive: 76%
